Reference: patent US9725426B2, “Cystathionine-γ-lyase (CSE) inhibitors” (SOVA PHARMACEUTICALS, INC., priority 2012, dated 2017)

molecular target: human, mouse or rat recombinant CSE (Homo sapiens, UniProt P32929)
Chain of UniProt P32929 (P32929 whole entry, looked up): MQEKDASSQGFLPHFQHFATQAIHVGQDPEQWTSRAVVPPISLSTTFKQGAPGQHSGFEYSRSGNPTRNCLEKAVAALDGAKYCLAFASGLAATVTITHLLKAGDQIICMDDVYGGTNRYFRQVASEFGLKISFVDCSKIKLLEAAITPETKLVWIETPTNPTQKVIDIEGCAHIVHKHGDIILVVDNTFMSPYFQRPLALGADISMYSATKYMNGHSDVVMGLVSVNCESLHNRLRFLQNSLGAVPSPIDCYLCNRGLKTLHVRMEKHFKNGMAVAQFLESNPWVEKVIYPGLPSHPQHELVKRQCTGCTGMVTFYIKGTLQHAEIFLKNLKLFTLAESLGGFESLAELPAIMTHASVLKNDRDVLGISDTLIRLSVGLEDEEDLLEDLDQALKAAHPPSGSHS

| SMILES | IC50 [µM] |
| --- | --- |
| O=[N+]([O-])c1ccc(/C=N/Nc2nnn[nH]2)cc1 [(E)-5-(2-(4-nitrobenzylidene)hydrazinyl)-1H-tetrazole] | > 100 |
| CN(C)CCN(N)c1nnn[nH]1 [Example 2, 2-(1-(1H-tetrazol-5-yl)hydrazinyl)-N,N-dimethylethanamine] | > 100 |
| COCCCN(N)c1nnn[nH]1 [Example 5] | > 100 |
| NN(Cc1ccccc1)c1nnn[nH]1 [Example 8] | > 100 |
| CC(C)CN(N)c1nnn[nH]1 [Example 10] | > 100 |
| CNCCCN(N)c1nnn[nH]1 [Example 15] | < 10 |
| Clc1ccc(/C=N/Nc2nnn[nH]2)c(Cl)c1 [Example 19] | > 100 |
| C/C(=N\Nc1nnn[nH]1)c1ccc(N(C)C)cc1 [Example 22] | < 10 |
| C1CCC(=NNc2nnn[nH]2)CC1 [Example 23] | < 10 |
| C1CCC(=NNc2nnn[nH]2)C1 [Example 24] | < 10 |
| CC/C(C)=N/Nc1nnn[nH]1 [Example 25] | < 10 |
| CN(C)c1ccc(C(=O)C/C=N/Nc2nnn[nH]2)cc1 [Example 26, (E)-3-(2-(1H-tetrazol-5-yl)hydrazono)-1-(4-(dimethylamino)phenyl)propan-1-one] | < 10 |
| CC(C)=NN(C)c1nnn[nH]1 [Example 28, 5-(1-methyl-2-(propan-2-ylidene)hydrazinyl)-1H-tetrazole] | < 10 |
| CCN(N)c1ncn[nH]1 [Example 31, 5-(1-ethylhydrazinyl)-1H-1,2,4-triazole hydrochloride] | > 100 |
| CCN(N)C(=O)c1nnn[nH]1 [Example 33, N-ethyl-1H-tetrazole-5-carbohydrazide] | > 100 |
| CCN(N)C(=O)Nc1nnn[nH]1 [Example 34, 1-ethyl-N-(1H-tetrazol-5-yl)hydrazinecarboxamide] | > 100 |
| CCN(N)C(=O)NS(=O)(=O)c1ccccc1 [Example 35, 1-ethyl-N-(phenylsulfonyl)hydrazinecarboxamide] | > 100 |

Counter-ions that a name gives are not always drawn.
